Source: the supplement of paper PMC8728848
This is one part of the list.

Legend:
Experiment in all cases: glycan array binding signal (z-score within array); higher = stronger binding
Conditions in all cases: glycan notation: IUPAC condensed, linker removed
[1] = target: Neu5Ac(a2-3)Gal(b1-4)Glc
Outline: (§1)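 The binding signal is a Z-score computed within each array. Data were drawn from 3228 arrays in the Consortium for Functional Glycomics database, restricted to those with a known protein sequence. Scores were averaged over arrays of the same protein sequence at different concentrations or buffers, and over linkers, and negative values can be taken as non-binding.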

[2] = target: Neu5Ac(a2-3)Gal(b1-4)GlcNAc
Outline: as §1

[3] = target: Neu5Ac(a2-3)Gal(b1-4)GlcNAc(b1-2)Man
Outline: as §1

[4] = target: Neu5Ac(a2-3)Gal(b1-4)GlcNAc(b1-2)Man(a1-3)[GlcNAc(b1-4)][Neu5Ac(a2-3)Gal(b1-4)GlcNAc(b1-2)Man(a1-6)]Man(b1-4)GlcNAc(b1-4)GlcNAc
Outline: as §1

[5] = target: Neu5Ac(a2-3)Gal(b1-4)GlcNAc(b1-2)Man(a1-3)[Neu5Ac(a2-3)Gal(b1-4)GlcNAc(b1-2)Man(a1-6)]Man(b1-4)GlcNAc(b1-4)GlcNAc
Outline: as §1

[6] = target: Neu5Ac(a2-3)Gal(b1-4)GlcNAc(b1-2)Man(a1-3)[Neu5Ac(a2-3)Gal(b1-4)GlcNAc(b1-2)Man(a1-6)]Man(b1-4)GlcNAc(b1-4)[Fuc(a1-6)]GlcNAc
Outline: as §1

[7] = target: Neu5Ac(a2-3)Gal(b1-4)GlcNAc(b1-2)Man(a1-3)[Neu5Ac(a2-6)Gal(b1-4)GlcNAc(b1-2)Man(a1-6)]Man(b1-4)GlcNAc(b1-4)GlcNAc
Outline: as §1

[8] = target: Neu5Ac(a2-3)Gal(b1-4)GlcNAc(b1-2)[Neu5Ac(a2-3)Gal(b1-4)GlcNAc(b1-4)]Man(a1-3)[GlcNAc(b1-4)][Neu5Ac(a2-3)Gal(b1-4)GlcNAc(b1-2)[Neu5Ac(a2-3)Gal(b1-4)GlcNAc(b1-6)]Man(a1-6)]Man(b1-4)GlcNAc(b1-4)GlcNAc
Outline: as §1

[9] = target: Neu5Ac(a2-3)Gal(b1-4)GlcNAc(b1-2)[Neu5Ac(a2-3)Gal(b1-4)GlcNAc(b1-4)]Man(a1-3)[GlcNAc(b1-4)][Neu5Ac(a2-3)Gal(b1-4)GlcNAc(b1-4)Man(a1-6)]Man(b1-4)GlcNAc(b1-4)GlcNAc
Outline: as §1

[10] = target: Neu5Ac(a2-3)Gal(b1-4)GlcNAc(b1-2)[Neu5Ac(a2-3)Gal(b1-4)GlcNAc(b1-6)]Man(a1-6)[Neu5Ac(a2-3)Gal(b1-4)GlcNAc(b1-2)Man(a1-3)]Man(b1-4)GlcNAc(b1-4)GlcNAc
Outline: as §1

[11] = target: Neu5Ac(a2-3)Gal(b1-4)GlcNAc(b1-2)[Neu5Ac(a2-3)Gal(b1-4)GlcNAc(b1-6)]Man(a1-6)[Neu5Ac(a2-3)Gal(b1-4)GlcNAc(b1-2)Man(a1-3)][GlcNAc(b1-4)]Man(b1-4)GlcNAc(b1-4)GlcNAc
Outline: as §1

[12] = target: Neu5Ac(a2-3)Gal(b1-4)GlcNAc(b1-3)Gal
Outline: as §1

[13] = target: Neu5Ac(a2-3)Gal(b1-4)GlcNAc(b1-3)Gal(b1-3)GlcNAc
Outline: as §1

[14] = target: Neu5Ac(a2-3)Gal(b1-4)GlcNAc(b1-3)Gal(b1-4)GlcNAc
Outline: as §1

[15] = target: Neu5Ac(a2-3)Gal(b1-4)GlcNAc(b1-3)Gal(b1-4)GlcNAc(b1-2)Man(a1-3)[Neu5Ac(a2-3)Gal(b1-4)GlcNAc(b1-3)Gal(b1-4)GlcNAc(b1-2)Man(a1-6)]Man(b1-4)GlcNAc(b1-4)GlcNAc
Outline: as §1

[16] = target: Neu5Ac(a2-3)Gal(b1-4)GlcNAc(b1-3)Gal(b1-4)GlcNAc(b1-3)Gal(b1-4)GlcNAc
Outline: as §1

[17] = target: Neu5Ac(a2-3)Gal(b1-4)GlcNAc(b1-3)Gal(b1-4)GlcNAc(b1-3)Gal(b1-4)GlcNAc(b1-2)Man(a1-3)[Neu5Ac(a2-3)Gal(b1-4)GlcNAc(b1-3)Gal(b1-4)GlcNAc(b1-3)Gal(b1-4)GlcNAc(b1-2)Man(a1-6)]GalNAc
Outline: as §1

[18] = target: Neu5Ac(a2-3)Gal(b1-4)GlcNAc(b1-3)Gal(b1-4)GlcNAc(b1-3)GalNAc
Outline: as §1

[19] = target: Neu5Ac(a2-3)Gal(b1-4)GlcNAc(b1-3)Gal(b1-4)GlcNAc(b1-3)[Neu5Ac(a2-3)Gal(b1-4)GlcNAc(b1-3)Gal(b1-4)GlcNAc(b1-6)]GalNAc
Outline: as §1

[20] = target: Neu5Ac(a2-3)Gal(b1-4)GlcNAc(b1-3)Gal(b1-4)GlcNAc(b1-6)[Gal(b1-3)]GalNAc
Outline: as §1

[21] = target: Neu5Ac(a2-3)Gal(b1-4)GlcNAc(b1-3)Gal(b1-4)[Fuc(a1-3)]GlcNAc
Outline: as §1

[22] = target: Neu5Ac(a2-3)Gal(b1-4)GlcNAc(b1-3)GalNAc
Outline: as §1

[23] = target: Neu5Ac(a2-3)Gal(b1-4)GlcNAc(b1-3)[Neu5Ac(a2-3)Gal(b1-4)GlcNAc(b1-6)]GalNAc
Outline: as §1

[24] = target: Neu5Ac(a2-3)Gal(b1-4)GlcNAc(b1-6)GalNAc
Outline: as §1

[25] = target: Neu5Ac(a2-3)Gal(b1-4)GlcNAc(b1-6)[Gal(b1-3)]GalNAc
Outline: as §1

[26] = target: Neu5Ac(a2-3)Gal(b1-4)GlcNAc(b1-6)[Neu5Ac(a2-3)Gal(b1-3)]GalNAc
Outline: as §1

[27] = target: Neu5Ac(a2-3)Gal(b1-4)GlcNAc6S
Outline: as §1

[28] = target: Neu5Ac(a2-3)Gal(b1-4)[Fuc(a1-3)]GlcNAc
Outline: as §1

[29] = target: Neu5Ac(a2-3)Gal(b1-4)[Fuc(a1-3)]GlcNAc(b1-2)Man
Outline: as §1

[30] = target: Neu5Ac(a2-3)Gal(b1-4)[Fuc(a1-3)]GlcNAc(b1-3)Gal
Outline: as §1

[31] = target: Neu5Ac(a2-3)Gal(b1-4)[Fuc(a1-3)]GlcNAc(b1-3)Gal(b1-4)GlcNAc
Outline: as §1

[32] = target: Neu5Ac(a2-3)Gal(b1-4)[Fuc(a1-3)]GlcNAc(b1-3)Gal(b1-4)[Fuc(a1-3)]GlcNAc(b1-3)Gal(b1-4)[Fuc(a1-3)]GlcNAc
Outline: as §1

[33] = target: Neu5Ac(a2-3)Gal(b1-4)[Fuc(a1-3)]GlcNAc(b1-3)GalNAc
Outline: as §1

[34] = target: Neu5Ac(a2-3)Gal(b1-4)[Fuc(a1-3)]GlcNAc(b1-6)[Gal(b1-3)]GalNAc
Outline: as §1

[35] = target: Neu5Ac(a2-3)Gal(b1-4)[Fuc(a1-3)]GlcNAc(b1-6)[Neu5Ac(a2-3)Gal(b1-3)]GalNAc
Outline: as §1

[36] = target: Neu5Ac(a2-3)Gal(b1-4)[Fuc(a1-3)]GlcNAc6S
Outline: as §1

[37] = target: Neu5Ac(a2-3)Gal6S(b1-4)GlcNAc
Outline: as §1

[38] = target: Neu5Ac(a2-3)Gal6S(b1-4)[Fuc(a1-3)]GlcNAc
Outline: as §1

B1: PX14379A-bvu-539-28-539 (Bacteroides vulgatus) (protein)
chain: EPYSEIIEEDYVPTEADEIALLATTYSQLRFVMDWYGLFDLQEESGDVIVTPTRPNGWDDGGTYKQMHKHTWDNQQGQPQSIWDYCYKGIANANKILKRADEGFFTEESKPKVVAEVKGVRALWYSILCDTHGNIPIQTSFSEEVPVQSTRKQVFDFIINELKEVMPNLPTEVNKSTYGRLTQWGAKCLMARMYLNAGVYTGTPMWNECLEQCNDIINSGLFSLETNYTDIFKTENSGCVETIFAIPYDEVYNEGDNNGPVFGAHMKFLSSNSRKVFNMQTTPWGGSAANPQFINSYDPDDMRLKYTWLQGDQYSPDGVLITTFPNKLPSIYKTDTDDGYRVGKYEIKVGAKSLLSNDFPYFRYTEVLLMKAECLLRLGQNETEAAHIVSQIRERAFRESAHPEKATVDAAWLKGDTHINYGTLDEKGQIDDAGNTEVVELGGLYDEWGWEFAAEARRRTDMIRFGTYQKKSWFNHTPTANDLNGNSILFPIHLDHLNTNPNLQQNPGYAGK
- glycan array binding signal (z-score) [1]: -0.077
- glycan array binding signal (z-score) [2]: -0.355
- glycan array binding signal (z-score) [3]: -0.388
- glycan array binding signal (z-score) [4]: 0.102
- glycan array binding signal (z-score) [5]: 0.069
- glycan array binding signal (z-score) [6]: -0.571
- glycan array binding signal (z-score) [7]: -0.456
- glycan array binding signal (z-score) [8]: 0.054
- glycan array binding signal (z-score) [9]: -0.249
- glycan array binding signal (z-score) [10]: 0.084
- glycan array binding signal (z-score) [11]: -0.378
- glycan array binding signal (z-score) [12]: -0.232
- glycan array binding signal (z-score) [13]: -0.338
- glycan array binding signal (z-score) [14]: -0.185
- glycan array binding signal (z-score) [15]: 0.342
- glycan array binding signal (z-score) [16]: -0.409
- glycan array binding signal (z-score) [17]: 0.579
- glycan array binding signal (z-score) [18]: -0.138
- glycan array binding signal (z-score) [19]: -0.132
- glycan array binding signal (z-score) [20]: 0.714
- glycan array binding signal (z-score) [21]: -0.423
- glycan array binding signal (z-score) [22]: -0.261
- glycan array binding signal (z-score) [23]: -0.185
- glycan array binding signal (z-score) [24]: -0.273
- glycan array binding signal (z-score) [25]: -0.388
- glycan array binding signal (z-score) [26]: -0.36
- glycan array binding signal (z-score) [27]: -0.045
- glycan array binding signal (z-score) [28]: -0.286
- glycan array binding signal (z-score) [29]: -0.132
- glycan array binding signal (z-score) [30]: -0.569
- glycan array binding signal (z-score) [31]: 0.004
- glycan array binding signal (z-score) [32]: -0.35
- glycan array binding signal (z-score) [33]: 5.8
- glycan array binding signal (z-score) [34]: -0.11
- glycan array binding signal (z-score) [35]: -0.096
- glycan array binding signal (z-score) [36]: -0.064
- glycan array binding signal (z-score) [37]: -0.25
- glycan array binding signal (z-score) [38]: -0.493
